# The other results are listed elsewhere or left out.
# Tested on: PF3D7_0420300 AP2 domain 1 (GST-tagged)
# Assay: gcPBM binding intensity (ln(normalized median fluorescence intensity)); higher = stronger DNA binding
# Summary of the method: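 The highest Masliner-normalised natural-log median intensity across replicate spots of either probe orientation is reported as binding intensity. GST-tagged P. falciparum DNA-binding domains expressed in E. coli were applied for 1 h to an Agilent 4 × 180k array of primer-extended double-stranded 36-bp intergenic genomic probes plus negative controls, and bound protein was detected with Alexa488 anti-GST antibody and scanned at 488 nm.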
row,Sequence,gcPBM binding intensity (ln)
1,AAATTAAAAAGACATTCACACATTTTCATCTTAACA [CACACA_site5221],9.18
2,AAACATATATATATTATATATATATATATATATATG [GTGCAC_negctrl_site182],9.02
3,TAACATATAATATTCACACACATATATATATTATAT [CACACA_site988],9.61
4,TGTAGGTATTATTATACACACATAAAAAAAAAAAAA [CACACA_site3598],9.36
5,TAAAATATTATAAAATGTACAAAACATATAAATATA [XGTACX_site5315],9.29
6,TATTATTATCTTACCACACACAATGTACGAAAAGAT [CACACA_site352],9.61
7,GTACAAATGTTGTGTATATATACACACATACATATA [XGTACX_negctrl_site276],9.49
8,AACTTACTTGGACATACACACATATAGATTTATATA [CACACA_site7412],9.72
9,ATGTAGTTTTATCAGTGTACAAGTATTTTATCACAT [XGTACX_site8958],9.4
10,TTATTTATAAATATTAATTTTTTTTTTTTTTTTTTT [XGTACX_negctrl_site105],8.81
11,TTTTATGTTTCAAAATGTACATTAAAATATACCATA [XGTACX_site1713],9.01
12,AAAATATATATATATATATATATATGTATACTCCTA [XGTACX_negctrl_site312],9.19
13,CATATGCATACTATACGTACATATGTATATAATATA [XGTACX_site7738],9.18
14,ATATATATATTTTTTAAACACACACCGAAATATTTG [CACACA_site8937],9.64
15,TTAATTAAAACGAATACACACATAAATATATAAAAG [CACACA_site1254],9.84
16,TTTTATTATTGAATACTAGTATATATAATATGAAGA [CACACA_negctrl_site910],8.99
17,AATATAATATAATGCACACATAAAAAAAAAATCAAA [CACACA_site122],9.62
18,TTTTTATATAACCTTCTTAATTCTTTTTTTTTTTTT [XGTACX_negctrl_site591],9.2
19,AAAACAAAATTATGAACATGCAAGGTAAAATTGTAA [TGCATGCA_site775],9.65

row,Sequence,gcPBM binding intensity (ln)
1,TATGATGATATAAAAACACACACATATAATATAATA [CACACA_site8321],9.8
2,TTAAAGCTTACATATACACACATACATAAATTCATA [CACACA_site8785],9.59
3,TTTTGATCATCCAAAATATCTTCATCTGAACTACTA [CACACA_negctrl_site939],9.08
4,GTAAAATAAAATATATGTACATATGTATATGAGGTA [XGTACX_site3743],9.5
5,TACCCTGATCGGCATGCATGTAAGTAACAAATATAT [TGCATGCA_site153],9.22
6,ATTCAAACAAATTAATGTACATATATATAAGATATT [XGTACX_site1531],9.23
7,ATTTAGAAATATATTTGTACATATATATATATATAT [XGTACX_site7129],9.15
8,CTACATATTAATATATGTACATATTAATATATCTAA [XGTACX_site7118],8.98
9,ATAAAAAGAAAAAAGGGTACACTATACTATTTAAAA [XGTACX_site4467],9.34
10,ATATATACATATAAATGTACATAATTATTATGCACA [XGTACX_site1261],9.15
11,TGTTGATAAAAAATAAAAAATAAAAAAATAAAATAT [TGCATGCA_negctrl_site559],9.35
12,TATATATATATGTGCACACATAATAAAAAAAAAAAT [CACACA_site3831],9.7
13,TTTTATTTTATTCTTAAATAAGTATTATAAAATATG [XGTACX_negctrl_site201],8.83
14,TATAAAGCATATTAAAGTACTTATTTTCCTTTTTCT [XGTACX_site8892],9.1
15,TTATTTGAACAATATGCACACATTTTATTTATTTTA [CACACA_site3420],9.46
16,TTAATGTTGTATGGTTGTACAATAAGCCCCTTTTAA [XGTACX_site2484],9.07
17,CAAAATATTTATATCACACATATAAATAAAAATAAA [CACACA_site6028],9.19
18,ATTAACATTTTCGTATGTACATATATAATATATGTT [XGTACX_site7184],9.4
19,AATAAAAATAAAAATTGTACACTTTTTTAATATTTA [XGTACX_site892],9.01

row,Sequence,gcPBM binding intensity (ln)
1,ATGTTTATTTATTTATGTACTTATATATTTATATAT [XGTACX_site7924],9.58
2,TTTCCAAATACAACTACACACAAACAAAAATTATAT [CACACA_site4641],9.79
3,AATGTGCACACGCGTACACACAAAAAAAGAAAAAAA [CACACA_site7031],9.62
4,TATTATTTGAGTAGTTGTACTCATTAATATATAAAA [XGTACX_site3468],8.9
5,TATTAATTTCACCTTTCACATATGGAAAAAAAAAAA [CACACA_negctrl_site1243],8.87
6,ATTAAATCCGCACGCACACACACATATTAATAAAAA [CACACA_site3992],9.93
7,TAAAAAAGAAAATATATACACACCAAAAAAAAAAAA [CACACA_site3146],9.66
8,AAACAAAAAAATTGAAATAAAATGAAGTAAATGAAC [TGCATGCA_negctrl_site129],9.7
9,ACATGTCTTAAAAGACGTACATATAAAAGAACCCTA [XGTACX_site8940],9.2
10,AATATTAAAGAATAATGTACAAAATAAAAGCAAAGA [XGTACX_site3550],9.86
11,TTATTTTTTAAAAGTAGTACAAATTTTTATAGAAAA [XGTACX_site7407],8.46
12,ATTCCTTGGTTGTATAGTACTTTGGTTAAACATAAA [XGTACX_site6967],9.37
13,CAATATTTGTTATGGGTGCAAACCGCATATATATAA [GTGCAC_site9543],9.08
14,TGTATATATTATATTTGTACATATAAAACTATATGT [XGTACX_site4782],9.25
15,TATCTCATAGTATACACACACACACGCGCACATATA [CACACA_site6917],10.3
16,TTTCGAAAAACAACAAGAAAAAAAAAAAAAAAAAAA [XGTACX_negctrl_site449],8.34
17,TTAAATATATGTAATACGCACACTTAATATTTTGAG [CACACA_site4170],9.24
18,TTTTGGTGGGTTACAAGTACTCAAAATGGATTGTTA [XGTACX_site1951],9.18
